Over roughly 110,000 compounds, “z-score” has its median near -0.1; the highest 2% begin near 2. The list shows a part of the results. Activity calls are given as the source filed them.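 Rule for the calls: active = z-score in the third read window above 3 or below -3; inactive = the rest.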

This is an account of results in PubChem BioAssay AID488969 (Vanderbilt High Throughput Screening Facility, 2010).

This experiment has as its target Metabotropic glutamate receptor 8 (Rattus norvegicus) (UniProt P70579). In words: mGluR8 Gi/Go-coupled signaling modulation – cell-based, rat, thallium flux, HTS, primary screen (AID 488969). As to conditions: HEK293 rat mGluR8, GIRK (G protein-gated inwardly rectifying potassium channel) thallium flux, FluoZin2; at 10 µM; stronger effect = higher value; submaximal glutamate (EC20) added with thallium.
UniProt P70579, sequence (P70579 whole entry, looked up): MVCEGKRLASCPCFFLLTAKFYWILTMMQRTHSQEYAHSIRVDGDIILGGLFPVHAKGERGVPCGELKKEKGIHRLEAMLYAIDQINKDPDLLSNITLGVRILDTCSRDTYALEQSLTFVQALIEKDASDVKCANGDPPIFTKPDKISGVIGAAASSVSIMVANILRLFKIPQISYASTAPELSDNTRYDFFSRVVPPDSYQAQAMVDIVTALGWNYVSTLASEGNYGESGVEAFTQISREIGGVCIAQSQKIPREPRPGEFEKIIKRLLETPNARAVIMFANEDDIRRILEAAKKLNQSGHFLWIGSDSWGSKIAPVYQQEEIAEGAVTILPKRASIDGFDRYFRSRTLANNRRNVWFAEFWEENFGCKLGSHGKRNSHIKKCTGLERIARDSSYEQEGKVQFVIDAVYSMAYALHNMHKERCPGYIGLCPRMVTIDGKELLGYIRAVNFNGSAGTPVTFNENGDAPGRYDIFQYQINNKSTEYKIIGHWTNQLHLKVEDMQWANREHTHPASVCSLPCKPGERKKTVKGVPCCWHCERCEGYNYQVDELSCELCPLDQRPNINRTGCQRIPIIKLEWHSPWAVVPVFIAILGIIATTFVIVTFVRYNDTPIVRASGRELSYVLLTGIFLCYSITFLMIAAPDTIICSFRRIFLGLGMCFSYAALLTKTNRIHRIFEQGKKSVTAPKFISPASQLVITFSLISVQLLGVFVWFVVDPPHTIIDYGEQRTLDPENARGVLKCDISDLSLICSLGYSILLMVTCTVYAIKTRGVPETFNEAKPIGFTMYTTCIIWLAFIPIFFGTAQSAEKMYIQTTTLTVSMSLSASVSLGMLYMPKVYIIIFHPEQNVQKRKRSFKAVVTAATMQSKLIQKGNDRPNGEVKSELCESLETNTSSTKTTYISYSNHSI
As for `O=C(NCc1ccco1)c1cc2ccccc2c(=O)o1`, the z-score is -0.606.

As for `Oc1cccc(/C=N/Nc2cc(N3CCOCC3)nc(N3CCOCC3)n2)c1`, the z-score was -0.242.

As for `CCOC(=O)/C=c1\s/c(=C\c2c(OCC)ccc3ccccc23)c(=O)n1CC(=O)NCC1CCCO1` (stereo unspecified), the z-score worked out at 0.259.

`CC(C)(C)SCCNC(=O)CSc1ccccc1` showed a z-score of -0.236.

For `CC(NC(=O)C1CCCCC1)c1ccc2c(c1)OCCO2` (stereo unspecified), the z-score was 0.368.

For `CCn1c(SCC(=O)c2cc(C)n(-c3ccc(C(=O)OC)cc3)c2C)nnc1-c1cccnc1`, the z-score worked out at 0.00946.

`O=C(CSc1ncccc1-c1nc2ccccc2[nH]1)NC1CC1`: the z-score is -0.0854.

In turn, `O=C(NCC1CCCO1)C1CCN(S(=O)(=O)c2cccnc2)CC1` (stereo unspecified) yielded a z-score of 0.103.

Molecule `COc1ccc(NCc2nnc(SCC(=O)NCc3ccco3)n2-c2ccccc2OC)cc1` showed a z-score of -0.215.

`CCOC(=O)c1nnn(CC(=O)Nc2ccccc2OC)c1C(=O)OCC` yielded a z-score of -0.326.

Take `O=C(Nc1ccc(Cl)cc1)C1CC=CCC1C(=O)OCC(F)(F)C(F)F` (stereo unspecified): the z-score was 0.127.

As for `CCCCCCSC1=C(C#N)C(=O)NC2(CCCCC2)S1`, the z-score is 0.941.

Molecule `c1ccc(Cn2c(SCc3cn4cccnc4n3)nnc2-c2ccco2)cc1` displayed a z-score of 0.882.

For `CN(C)C(=O)CSC1c2ccccc2C(=O)N1c1ccccc1` (stereo unspecified), the z-score is -0.138.

`CN(c1ccc(C(=O)NCCC2=CCCCC2)cc1)S(C)(=O)=O` gave a z-score of 0.45.

For `C/C(=C\c1ccccc1)CN(C)CCN(C)C`, the z-score is -0.122.

As for `Cc1ccnc(NC(=O)CCC(=O)N(CC(=O)NC(C)(C)C)C2CCCC2)c1`, the z-score is -0.259.

Take `CC1=NN(C(C)C)C(=O)C1`: the z-score was -0.12.

In the case of `COc1ccc(C(=O)/C=C/N(C)C)cc1`, the z-score is -0.22.

`CCN(CC)CCNC(=O)C1c2ccccc2C(=O)N(C)C1c1cn(C)c2ccccc12` (stereo unspecified) returned a z-score of 0.724.

As to `COc1ccnc(N=CNOCc2ccc(F)cc2Cl)c1C#N`, the z-score is 0.442.

In turn, `CC(=O)OC(C(=O)NC1CCCCC1)c1ccncc1` (stereo unspecified) returned a z-score of 0.0327.

On to `CN1CCN(c2ccc(NC(=O)CSc3ccccc3)cc2F)CC1`, for which the z-score amounted to 0.0495.

In the case of `CC(C)CCOc1ccc(C2=NNC(=O)CC2)cc1`, the z-score is -0.017.

The molecule `COC(=O)CNC(=O)c1cn(CC(C)C)c(=O)c2cc(OC)c(OC)cc12` gave a z-score of 0.67.

The molecule `Cc1ccnc(NC(=O)Cn2ccc([N+](=O)[O-])n2)c1` yielded a z-score of 1.6.

On to `COc1ccc(N(CC(=O)NCCSc2ccccn2)S(C)(=O)=O)cc1`, for which the z-score was -0.246.

Molecule `O=[N+]([O-])c1cc(S(=O)(=O)N2CCCCCC2)ccc1F` came in with a z-score of -0.312.

`O=C(CN1C(=O)NC2(CCCc3ccccc32)C1=O)N1CCc2ccccc2C1` (stereo unspecified) gave a z-score of -0.467.

`C[C@H](NC(=O)OC(C)(C)C)C(=O)NCC1CCC(C(=O)O)CC1` (stereo partly specified) returned a z-score of 0.0674.

As for `COc1ccccc1/C=C/C(=O)c1ccc(NC(C)=O)cc1`, the z-score is -0.12.

On to `COc1cccc(CNc2ccc3c(c2)CCC3)c1`, for which the z-score is -0.0994.

In the case of `Cc1cccc(Nc2nc(N)c([N+](=O)[O-])c(N3CCOCC3)n2)c1`, the z-score is -0.442.

In turn, `O=C(Nc1ccccc1N1CCCCC1)c1ccccc1F` returned a z-score of -0.336.

Molecule `Cc1ccc(NC(=O)COC(=O)C2=COCCO2)cc1` registered a z-score of -0.19.

Consider `CC(=O)NC12CC3CC(C1)CC(C(=O)Nc1nccs1)(C3)C2`, for which the z-score is -0.116.

For the molecule `COc1ccc2oc(=O)c(C(=O)NCc3cccnc3)cc2c1`, the z-score was -0.102.

`COc1ccccc1C(=O)N1CCN(C2CCN(Cc3ccccc3)CC2)CC1` registered a z-score of -0.0811.

For the molecule `CSc1nc(C)cc(SCC(=O)Nc2ccc(Cl)cc2Cl)n1`, the z-score is -0.217.

Take `COC(=O)C1=C(C(=O)OC)C(c2ccccc2O)c2sc(=O)[nH]c2S1` (stereo unspecified): the z-score was -1.12.

In the case of `CCOC(=O)c1c(C)n(C)c2ccc(OCC(O)CN3C(=O)c4ccccc4S3(=O)=O)cc12` (stereo unspecified), the z-score amounted to 1.88.

Take `COc1nc(Nc2cccc(C(F)(F)F)c2)nc(OC)n1`: the z-score was -0.42.

In turn, `COc1ccccc1NC(=S)N1CCN(C/C=C/c2ccccc2)CC1` displayed a z-score of -0.205.

As for `CCCN(CC(=O)Nc1ccc(C)cc1Br)CC(=O)Nc1ccc(F)c(F)c1F`, the z-score is -0.174.

`COc1ccc(-c2cc(C(F)(F)F)nc(SCC(=O)Nc3sc4c(c3C#N)CCC4)n2)cc1` yielded a z-score of -0.24.

The molecule `CCN1CCN(Cc2nc3c(c(=O)n(C)c(=O)n3C)n2Cc2cccc3ccccc23)CC1` yielded a z-score of 0.0876.

In turn, `COC(=O)c1cccc(Oc2nc3c(c(=O)n(C)c(=O)n3C)n2C(C)C)c1` registered a z-score of -0.403.

As to `O=C(NCCN1CCN(c2ccccc2)CC1)C1CCCN(S(=O)(=O)c2cnc[nH]2)C1` (stereo unspecified), the z-score is -0.179.

`CN(CC(=O)NC(=O)NCc1ccccc1)Cc1cccc(Cl)c1Cl` registered a z-score of 0.0661.

As to `O=C(Cc1ccc(Br)cc1)N1CCN(c2ccccc2O)CC1`, the z-score was determined as 0.0805.

`COc1cc(CN(C(=O)c2ccco2)c2ccc(C)cc2)ccc1O`: the z-score was -2.06.

As to `COc1cc(Cl)c(C)cc1NC(=O)c1cc(S(=O)(=O)N(C)C)ccc1N1CCCC1`, the z-score is -1.35.

For the molecule `CCCOc1c(OC)cccc1C1CC(=O)Nc2cc3c(cc21)OCO3` (stereo unspecified), the z-score was -0.508.

The molecule `COC(=O)c1ccccc1NC(=O)COC(=O)c1cccnc1` displayed a z-score of -0.181.

`CCOc1ccc(-c2nnn(CC#N)n2)cc1OC` gave a z-score of 0.567.

For `COc1cccc(N2CC(O)=C(c3nc4ccccc4c(=O)[nH]3)C2=N)c1`, the z-score was found to be 0.264.

Regarding `CCCC(=O)C1=C(O)C(C(=O)OC)C(C)(C)CC1=N` (stereo unspecified), the z-score was determined as 0.401.

`Cc1cc(C)n(C/C=C/Cn2nc(C)cc2C)n1` returned a z-score of -0.482.

`COc1cc(C)ccc1S(=O)(=O)N1CCN(C23CC4CC(CC(C4)C2)C3)CC1` showed a z-score of 1.95.

`CCOC(=O)CON1C(=O)C(C)(C)N(OCC(=O)OCC)C(=O)C1(C)C` registered a z-score of 0.749.

For the molecule `COc1ccc(C(=O)C[N+]2(C)CCOCC2)cc1`, the z-score came out at 0.0424.

As for `CCN1C(c2ccccc2)=C(c2ccccc2)S/C1=C\C=C1/SC(=S)N(C)C1=O`, the z-score was -0.267.

With `COc1ccccc1-c1nnc(NC(=O)OCC(C)C)s1`, the z-score is -0.329.

`C/C(=N\NC(=O)Cn1c(C)nc2ccccc21)c1cccs1` returned a z-score of -0.134.

`C=CCn1c(NC)cc(=O)n(C)c1=O` had a z-score of 0.549.

In the case of `COc1cc(C(=O)NCCOc2ccccc2C)c(Br)c(OC)c1OC`, the z-score was determined as 0.148.

`Oc1ccc(Cl)cc1-c1cc(C(F)(F)C(F)F)nc(-c2ccccc2)n1` registered a z-score of -0.202.

Turning to `CC1CCCCN1C(=O)COc1ccc(NC(=O)c2ccco2)cc1` (stereo unspecified), the z-score was 0.31.

Regarding `Cc1ccccc1NC(=S)c1nc2ccccc2[nH]1`, the z-score was active: 10.9.

`Cc1ccc(CC(=O)OCC(=O)NC2CCCC(C)C2C)cc1C` (stereo unspecified) registered a z-score of 0.326.

On to `O=C(C(Cc1ccccc1)n1cccc1)N1CCN(c2ncccn2)CC1` (stereo unspecified), for which the z-score was -0.381.

For `Nc1cc(-c2ccc(Cl)cc2)nn1S(=O)(=O)c1cccc2nsnc12`, the z-score was -0.417.

As to `O=C(NC1CCCCC1)c1cc(Cl)ccc1[N+](=O)[O-]`, the z-score was -0.0951.

In turn, `CCCC(c1nnnn1C(C)(C)CC)N(CCCO)Cc1cc2cc(C)cc(C)c2[nH]c1=O` (stereo unspecified) yielded a z-score of -1.4.

`O=C(CNCCC1=CCCCC1)Nc1ccccc1N1CCCCC1` had a z-score of 0.651.

As for `COc1ccc(P(=O)(COc2ccc([N+](=O)[O-])cc2)c2ccc(OC)cc2)cc1`, the z-score was -0.135.

`Cc1cc(NC(=O)c2cnc3ccccn3c2=O)no1` registered a z-score of -0.108.

In the case of `Oc1ccc(N=Cc2ccc(-c3cccs3)s2)cc1`, the z-score was found to be 0.315.

In the case of `Cc1nn(S(=O)(=O)c2ccc(Cl)cc2)c(C)c1Sc1ccc([N+](=O)[O-])cc1`, the z-score was -0.269.

Turning to `CCOC(=O)c1sc(NC(=O)CSc2n[nH]c(-c3ccncc3)n2)c(C#N)c1C`, the z-score is -0.25.

The molecule `CC(C)CN=C(NS(=O)(=O)c1ccccc1)C(Cl)(Cl)Cl` returned a z-score of -0.221.

In turn, `CC1(C)C(=O)Nc2ccccc2N1C(=O)COC(=O)c1cc([N+](=O)[O-])ccc1N` registered a z-score of -0.325.

`COCCSc1ccccc1C(=O)NCc1ccc(S(N)(=O)=O)cc1`: the z-score came out at 0.373.

Molecule `O=C(Nc1nc(-c2ccccc2)cs1)c1cccc([N+](=O)[O-])c1C(=O)O` gave a z-score of 0.279.

In the case of `CCn1nc(C(=O)OC(C(=O)c2c[nH]c3ccccc23)c2ccccc2)c2ccccc2c1=O` (stereo unspecified), the z-score was -0.494.

`O=C(COC(=O)c1ccccc1C(=O)c1ccccc1)Nc1ccc(SC(F)F)cc1` displayed a z-score of -0.343.

`O=C(Nc1cccc2nsnc12)c1ccc2c(c1)OCO2` registered a z-score of -0.167.

The molecule `CCOC(=O)C1CCCN(C(=S)Nc2cccc(Cl)c2)C1` (stereo unspecified) showed a z-score of -0.0944.

On to `O=C1C2CCCN2C(c2ccccc2)N1c1nccs1` (stereo unspecified), for which the z-score turned out to be 0.521.

Turning to `Cc1ccc(CN2CC34C=CC(O3)C(C(=O)NCc3ccc5c(c3)OCO5)C4C2=O)cc1` (stereo unspecified), the z-score is -0.137.

For the molecule `Cc1ccc2sc(NC(=O)CSc3nc(C)cc(C)c3C#N)nc2c1`, the z-score came out at 0.015.

Turning to `Cc1ccc2[nH]c(=O)c(CN(C)C(=O)c3ccccn3)cc2c1`, the z-score was found to be 0.194.

`Cc1occc1C(=O)Nc1sc2c(c1C(N)=O)CCC(C(C)(C)C)C2` (stereo unspecified) returned a z-score of 0.0299.

`CCCCn1c(=O)n(C)c(=O)c2c3c(sc21)COC(C)(C)C3`: the z-score is 0.121.

In the case of `COC(=O)c1sc(=S)n(-c2cccc(Cl)c2)c1N`, the z-score amounted to 0.107.

Turning to `CCCCCCc1cc2cc(-c3nnc(-c4cc(OC)c(OC)c(OC)c4)o3)c(=O)oc2cc1O`, the z-score was active: -4.55.

Turning to `CCOC(=O)c1[nH]c(C)c(C(=O)NCCCN2CCOCC2)c1C`, the z-score came to 0.394.

Take `C=CCC(NCc1ccco1)c1ccc(OC)c(OC)c1` (stereo unspecified): the z-score is -0.327.

The molecule `CCc1ccc(NC(=O)c2cccnc2)cc1` showed a z-score of -0.123.

`CCCCCOc1ccc(N2C(=O)CC(N(O)c3ccccc3)C2=O)cc1` (stereo unspecified) gave a z-score of -0.221.

Consider `Cc1cc2nc(-c3ccc(SCC(=O)N4CCOCC4)nc3)[nH]c2cc1C`, for which the z-score is -0.284.

Molecule `Cc1cc(=O)oc2cc(OCC(=O)N3CCOCC3)ccc12` returned a z-score of 0.0972.

As for `O=C(N/N=C/c1c[nH]c2ccccc12)c1cccc([N+](=O)[O-])c1`, the z-score is -0.556.

In turn, `O=c1[nH]c(NCCO)nc2ncn(Cc3ccccc3)c12` gave a z-score of 0.0474.

In turn, `CCOC(=O)C(C)Sc1nnc(Cn2c(=O)sc3ccccc32)n1-c1ccccc1` (stereo unspecified) came in with a z-score of -0.36.

Take `COC(=O)Nc1ccc(S(=O)(=O)Nc2ccccc2F)cc1`: the z-score is 0.00713.

As for `O=C(Nc1nnc(C2COc3ccccc3O2)o1)c1ccc(F)cc1` (stereo unspecified), the z-score was found to be 1.28.

In turn, `COc1cc(OC)nc(NC(C)=O)n1` returned a z-score of 0.238.

`Cc1ccc(O)c(C(=O)c2cnc3c(c2)CN(CCC(C)C)C(=O)N3)c1` registered a z-score of 0.371.

Regarding `COc1ccc(OC)c(/C=N/NC(=O)c2csc3ccccc23)c1`, the z-score is -0.183.

In turn, `COc1cc2c(cc1OC)CN(C(=O)CSc1nnc(C)s1)CC2` had a z-score of -0.184.
